# Measured values published in PubChem BioAssay AID686979 (National Center for Advancing Translational Sciences (NCATS), 2013).
# Screen size: about 420,000 compounds; about 50,000 (12%) were called active. The shares of active, inactive and inconclusive entries below differ from those in the screen. Calls follow the shape of the dose curve; as a rule, active = well fitted inhibition curve with a large enough effect; inconclusive = small, poorly fitted or top-dose-only effect; inactive = flat fitted curve, though single readings scatter. Potencies of inconclusive entries are left out as doubtful fits.
# Test: qHTS for Inhibitors of human tyrosyl-DNA phosphodiesterase 1 (TDP1): qHTS in cells in presence of CPT; also: nearly all actives have a fitted effect of over 55% in size
# Details: chicken DT40 Tdp1-/-;hTDP1 cells + 20 nM CPT, ATP luminescence, 48 h; activity change, negative = growth inhibition: at 46.2 µM (top of the series) unless noted
# In short: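 Cell growth measured by CellTiter-Glo luminescence after a minimum 48 h, 37 C compound exposure with 20 nM CPT in Tdp1-knockout DT40 cells stably expressing hTDP1, seeded 400/well; qHTS titration format.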
# % is scaled to controls: 0 for no effect and ±100 for the full control effect; potency is read from the fitted curve at half-maximal effect; tags tell the direction and shape of the fitted curve.
Compound,Potency,"activity change, negative = growth inhibition"
Cc1ccc(-n2nc(C)c(C(=O)NCCCN3CCN(c4cccc(Cl)c4)CC3)c2-n2cccc2)cc1,active: 8.2 µM,–
CC1CC(=O)Nc2ccccc2N1S(=O)(=O)c1cccc(F)c1 (stereo not drawn),"inconclusive [inhibitor, partial curve, poor fit]",–
CC(C)(C)C1=CC(=Nc2ccccc2N)C=C(C(C)(C)C)C1=O,"inconclusive [inhibitor, single point]",–
COc1ccc(N(C(=O)c2snc(C(N)=O)c2N)C(C(=O)NC2CCCC2)c2ccco2)c(OC)c1 (stereo not drawn),"inconclusive [inhibitor, single point]",–
Cc1ccc(C)c(CN2C(=O)c3ccccc3S(=O)(=O)c3ccc(C(=O)NCCc4ccc(Cl)cc4)cc32)c1,–,inactive: -8.62%
COc1cccc(-c2nc(NCc3cccs3)c3ccccc3n2)c1,"inconclusive [inhibitor, single point]",–
CC(CC(=O)Nc1cc(S(=O)(=O)N2CCOCC2)ccc1OCC(F)(F)F)c1ccccc1 (stereo not drawn),–,inactive: -17.9%
O=c1[nH]nc(-c2n[nH]c(=O)o2)o1,"inconclusive [inhibitor, single point]",–
O=C(C#Cc1ccccc1)Nc1ccccc1F,active: 20.6 µM,–
O=C(NCc1cccnc1)C1CC(c2cccc(Br)c2)=NO1 (stereo not drawn),"inconclusive [inhibitor, single point]",–
Cc1cccc(N2CCN(C(=O)C(NS(=O)(=O)c3cccs3)c3ccccc3)CC2)c1C (stereo not drawn),"inconclusive [inhibitor, single point]",–
CC(C)CN(C(=O)COC(=O)c1cccc2ccccc12)c1c(N)n(Cc2ccccc2)c(=O)[nH]c1=O,"inconclusive [inhibitor, single point]",–
CC(C)CCSc1nnc2n(-c3ccccc3)c(=O)c3c4c(sc3n12)CC(C)CC4 (stereo not drawn),–,inactive: -15.6%
COc1ccc(Oc2ncc3nc(C)c(=O)n(Cc4cccs4)c3n2)cc1,"inconclusive [inhibitor, single point]",–
O=C(NC(=S)Nc1cccc(C(F)(F)F)c1)c1csnn1,"inconclusive [inhibitor, single point]",–
Cc1cc(C)c2nc(N3CCCC(C(=O)N4CCN(c5ncccn5)CC4)C3)sc2c1 (stereo not drawn),"inconclusive [inhibitor, single point]",–
CCOC(=O)c1sc2nc(CC(=O)OC)nc(N3CCN(c4ccc(OC)cc4)CC3)c2c1C,active: 23.1 µM,–
O=C(Cn1cnc2c(nnn2Cc2ccc(F)cc2)c1=O)N1CCN(c2ccccc2)CC1,"inconclusive [inhibitor, partial curve]",–
CCOc1ccc(C(=O)NC2C(=O)N3C(C(=O)O)=C(COC(C)=O)CSC23)cc1OCC (stereo not drawn),"inconclusive [inhibitor, single point]",–
O=C(Nc1ccc(Oc2ccccc2)cc1)c1ccc(F)c(S(=O)(=O)N2CCN(c3ccccc3F)CC2)c1,active: 5.8 µM,–
COCCNC(=O)c1ccc(N2CC3CC(C2)c2cccc(=O)n2C3)c(NC(=O)c2ccccc2Cl)c1 (stereo not drawn),–,inactive: -27.1%
COc1ccc(C/C(N)=N/OC(=O)c2cccc([N+](=O)[O-])c2)cc1,"inconclusive [inhibitor, single point]",–

Compound,Potency,"activity change, negative = growth inhibition"
CC#CCN1c2ccccc2[C@]23C[C@@H](C(=O)OC)N(C(=O)NC(C)(C)C)C2=NC(C(=O)OC)=C(C(=O)OC)[C@H]13,"inconclusive [inhibitor, partial curve, poor fit]",–
Cc1ccc(-c2nc(CSCC(=O)N3CCOCC3)c(C)o2)cc1,–,inactive: -2.56%
Cc1noc(C)c1NC(=O)N(C)C[C@H]1Oc2c(NC(=O)Nc3ccccc3)cccc2C(=O)N([C@H](C)CO)C[C@@H]1C,"inconclusive [inhibitor, partial curve]",–
CCOc1ccc(NC(=O)c2nc(SCC)ncc2Cl)cc1,"inconclusive [inhibitor, single point]",–
CCc1ccc(NC(=O)Cn2c(=O)nc(-c3ccccc3F)c3cc(Cl)ccc32)cc1,–,inactive: -1.14%
COC(=O)c1ccccc1N(C)S(=O)(=O)c1cc2c3c(c1)CC(=O)N3CCC2,"inconclusive [inhibitor, single point]",–
Cc1nn(-c2ccccc2)c2c1c(C)c(CCC(=O)N1CCOCC1)c(=O)n2C,active: 23.1 µM,–
Cc1cc(=O)oc2c(C)c3occc3cc12,–,inactive: 14.3%
Cc1ccccc1CN1CCc2c(OCC(=O)N3CCCCC3)cccc2C1=O,"inconclusive [inhibitor, single point]",–
CN(c1ccccc1)S(=O)(=O)c1cccc(NC(=O)Nc2ccc(Cl)cc2C#N)c1,"inconclusive [inhibitor, single point]",–
CCc1ccc2ncc(S(=O)(=O)c3ccc(C)c(C)c3)c(N3CCCC3)c2c1,active: 23.1 µM,–
COc1ccc(OC)c(NC(=O)CCCN2C(=S)NC(C)(C)CC2C)c1 (stereo not drawn),–,inactive: -9.17%
COc1cccc(NC(=O)/C(C#N)=C/c2ccc(-c3ccc(C)cc3)o2)c1,"inconclusive [inhibitor, single point]",–
CCOC(=O)C(=NC(C)CC)NNc1cccc(C(F)(F)F)c1 (stereo not drawn),–,inactive: -8.06%
Nc1ncnc2c1ccn2[C@H]1CN(Cc2ccc3c(c2)OCO3)C[C@@H](CO)O1,"inconclusive [inhibitor, partial curve, poor fit]",–
O=C(NCc1cccnc1)C1CC2c3ccccc3C1c1ccccc12 (stereo not drawn),–,inactive: -8.54%
O=C(c1cccc(Br)c1)N1CCN(S(=O)(=O)N2CCCCC2)CC1,–,inactive: -5.47%
CCN(CC(=O)Nc1c(F)cccc1F)C(=O)Cc1c(C)nc2ccccc2c1C,"inconclusive [inhibitor, single point]",–
COc1ccc(OC)c(-c2c(C#N)c(N)nc3c2c(=O)nc2sccn23)c1,–,inactive: 5.19%
CCOC(=O)N1CCN(CC(O)COCC2=CCC3CC2C3(C)C)CC1 (stereo not drawn),"inconclusive [inhibitor, single point]",–
O=C(NCc1ccco1)c1ccccc1F,"inconclusive [inhibitor, single point]",–
